Assay results taken from the supplement of paper PMC12067230.
The data scatter; read single values as rough.

Experiment: amyloid nucleation score relative to library mode (yeast Sup35 reporter selection) (log enrichment difference); higher = more amyloid nucleation; sequences are the first 22 residues of the Bri2 peptide extended by up to 12 random residues
Conditions: random library (experiment): 1;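 active = nucleation score significantly above 0 at FDR 0.05; inactive = not significantly above 0 or absent from output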
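Also: [psi-pin-] Saccharomyces cerevisiae expressing SupN fusions, induced by 100 µM Cu2SO4, selected 7 d at 30 °C without adenine and uracil, scored by deep sequencing of output versus input.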

Sequence	amyloid nucleation score
EASNCFAIRHFENKFAVETLICNRTS	0.887
EASNCFAIRHFENKFAVETLICFTCVAGMHCGCR	3.05
EASNCFAIRHFENKFAVETLICVPSCKVEWDV	0.171
EASNCFAIRHFENKFAVETLICHISIAD	6.83
EASNCFAIRHFENKFAVETLICYDMLR	inactive
EASNCFAIRHFENKFAVETLICNSRDVRNEWAGS	-0.9
EASNCFAIRHFENKFAVETLICVWSVRGLTFVRM	0.0764
EASNCFAIRHFENKFAVETLICRTVLGAYQVLPA	inactive
EASNCFAIRHFENKFAVETLICNA	inactive
EASNCFAIRHFENKFAVETLICHRRNCPLGQSTA	inactive
EASNCFAIRHFENKFAVETLICVVYCY	0.747
EASNCFAIRHFENKFAVETLICVTCSHGSYMRGM	6.67
EASNCFAIRHFENKFAVETLICPRVTKVDHCAKR	inactive
EASNCFAIRHFENKFAVETLICYVNGHSMTPSWP	4.94
EASNCFAIRHFENKFAVETLICCCGTNTKFHDRT	7.59
EASNCFAIRHFENKFAVETLICCQVSGVITFLVL	5.2
EASNCFAIRHFENKFAVETLICCSVSNVRLMSPR	8.62
EASNCFAIRHFENKFAVETLICRNAEQDRNSQAG	inactive
EASNCFAIRHFENKFAVETLICDQYRFRCEGQVS	inactive
EASNCFAIRHFENKFAVETLICDKWDGHPVRGRM	0
EASNCFAIRHFENKFAVETLICIMCTII	8.21
EASNCFAIRHFENKFAVETLICEVVEGRIGVPVE	inactive
EASNCFAIRHFENKFAVETLICLTVWSVKEDPLY	inactive
EASNCFAIRHFENKFAVETLICRLVSWWRMKLHR	inactive
EASNCFAIRHFENKFAVETLICRGYVGDMVRKVW	inactive

Sequence	amyloid nucleation score
EASNCFAIRHFENKFAVETLICYAYK	2.84
EASNCFAIRHFENKFAVETLICTDT	inactive
EASNCFAIRHFENKFAVETLICCASMRHSMLLLI	0.693
EASNCFAIRHFENKFAVETLICLVPYRLRAYGLD	inactive
EASNCFAIRHFENKFAVETLICRIGC	6.4
EASNCFAIRHFENKFAVETLICKYMGLKSTMRFL	inactive
EASNCFAIRHFENKFAVETLICWGSLGAKELGLS	inactive
EASNCFAIRHFENKFAVETLICVGDIRVHKSVGG	6.91
EASNCFAIRHFENKFAVETLICRTCVLAVAARRL	inactive
EASNCFAIRHFENKFAVETLICRLGRMYMCTMGA	inactive
EASNCFAIRHFENKFAVETLICGRQGLTCPILND	inactive
EASNCFAIRHFENKFAVETLICRKKQVD	inactive
EASNCFAIRHFENKFAVETLICIIYCELL	-0.146
EASNCFAIRHFENKFAVETLICAS	inactive
EASNCFAIRHFENKFAVETLICVEEG	0.556
EASNCFAIRHFENKFAVETLICYKV	inactive
EASNCFAIRHFENKFAVETLICVQMTQSAVWGRA	inactive
EASNCFAIRHFENKFAVETLICARIVVVQFGTWL	1.87
EASNCFAIRHFENKFAVETLICDCLEVLCQPTSM	inactive
EASNCFAIRHFENKFAVETLICMRRDDNIEEQCV	-0.235
EASNCFAIRHFENKFAVETLICLISRGLSATV	inactive
EASNCFAIRHFENKFAVETLICDFREPKYKEHGS	inactive
EASNCFAIRHFENKFAVETLICYKLDRCTLCWAM	2.09
EASNCFAIRHFENKFAVETLICTWLWRVAKCERL	inactive
EASNCFAIRHFENKFAVETLICPLSEGFAGGVVC	inactive

Same assay, conditions: random library (experiment): 2

Sequence	amyloid nucleation score
EASNCFAIRHFENKFAVETLICAMVERGKKYFYS	inactive
EASNCFAIRHFENKFAVETLICRFRFMFLFVMSV	inactive
EASNCFAIRHFENKFAVETLICVMNLPNDVMSYE	6.8
EASNCFAIRHFENKFAVETLICVPRVDVRKWEAW	inactive
EASNCFAIRHFENKFAVETLICRYDSM	inactive
EASNCFAIRHFENKFAVETLICFNGFAQNYPDLN	7.48
EASNCFAIRHFENKFAVETLICVNNCDSLSEVIY	inactive
EASNCFAIRHFENKFAVETLICLNLFGFSKRNSA	8.32
EASNCFAIRHFENKFAVETLICFVRT	inactive
EASNCFAIRHFENKFAVETLICFFESYTMPVGGA	inactive
EASNCFAIRHFENKFAVETLICIVVCLITLRF	inactive
EASNCFAIRHFENKFAVETLICECCAGVRDWQC	2.6
EASNCFAIRHFENKFAVETLICVGHSGLG	inactive
EASNCFAIRHFENKFAVETLICGVV	inactive
EASNCFAIRHFENKFAVETLICVFAMFMVQVIEW	inactive
EASNCFAIRHFENKFAVETLICDIFYSYD	inactive
EASNCFAIRHFENKFAVETLICLEFSLVLFSIYE	inactive
EASNCFAIRHFENKFAVETLICCFSDKTVLTNWV	6.26
EASNCFAIRHFENKFAVETLICYTKMCPRCSVCI	inactive
EASNCFAIRHFENKFAVETLICLTGFGYCRECSR	6.35

Sequence	amyloid nucleation score
EASNCFAIRHFENKFAVETLICMIRSMCVCSMFR	4.68
EASNCFAIRHFENKFAVETLICYICSCNYLSSCP	7.77
EASNCFAIRHFENKFAVETLICARCTWSACALDC	1.26
EASNCFAIRHFENKFAVETLICNEWDLTEQNPET	-0.148
EASNCFAIRHFENKFAVETLICRLIWYCATSDFM	inactive
EASNCFAIRHFENKFAVETLICMVRSAGTIDLEV	-0.0198
EASNCFAIRHFENKFAVETLICDILPDHPSERNA	inactive
EASNCFAIRHFENKFAVETLICLVCIIVGSGLDS	inactive
EASNCFAIRHFENKFAVETLICILNRIQWGNLVG	-0.399
EASNCFAIRHFENKFAVETLICFLPTRLDTWRGC	0.664
EASNCFAIRHFENKFAVETLICLIIFM	inactive
EASNCFAIRHFENKFAVETLICHDYCLKSVGRVW	inactive
EASNCFAIRHFENKFAVETLICCPDNETALRFKM	inactive
EASNCFAIRHFENKFAVETLICFSWEATVCHVSV	4.61
EASNCFAIRHFENKFAVETLICYDWLVFEDMIFR	inactive
EASNCFAIRHFENKFAVETLICKVYYPY	inactive
EASNCFAIRHFENKFAVETLICHILHTRLQFRSW	inactive
EASNCFAIRHFENKFAVETLICFLLVFSYSYAVK	inactive
EASNCFAIRHFENKFAVETLICNENSVSGDITSM	inactive
EASNCFAIRHFENKFAVETLICQWLLLFSICRRK	0.553

Same assay, conditions: random library (experiment): 3

Sequence	amyloid nucleation score
EASNCFAIRHFENKFAVETLICFAALYKSSGC	inactive
EASNCFAIRHFENKFAVETLICTFISCCYWADPA	4.03
EASNCFAIRHFENKFAVETLICWSEVYCGPLALW	inactive
EASNCFAIRHFENKFAVETLICESGLSSAGLS	inactive
EASNCFAIRHFENKFAVETLICFTVMLCTVVTCR	inactive
EASNCFAIRHFENKFAVETLICDCGLRP	inactive
EASNCFAIRHFENKFAVETLICTSLANVGQVTWL	5.57
EASNCFAIRHFENKFAVETLICRISFKFSWLRLP	inactive
EASNCFAIRHFENKFAVETLICDRRDSMMVYEWM	4.11
EASNCFAIRHFENKFAVETLICAVGTCLGVCLIA	inactive
EASNCFAIRHFENKFAVETLICHSCTDVDCNSVV	4.65
EASNCFAIRHFENKFAVETLICYMVWRVKMGGRS	inactive
EASNCFAIRHFENKFAVETLICNRVGRGRVPGGK	inactive
EASNCFAIRHFENKFAVETLICCGRTASAHWWGR	7.41
EASNCFAIRHFENKFAVETLICARFRVRMLISGM	inactive
EASNCFAIRHFENKFAVETLICIMKMDLGMLVQL	inactive
EASNCFAIRHFENKFAVETLICRLRRANDWNHNE	inactive
EASNCFAIRHFENKFAVETLICEMRSKCCHRGGR	3.42
EASNCFAIRHFENKFAVETLICRSEKRMVFRASA	inactive
EASNCFAIRHFENKFAVETLICGFVTVVARPRMP	5.26
EASNCFAIRHFENKFAVETLICEQFGRYVAVSQW	inactive
EASNCFAIRHFENKFAVETLICFWCCARNPTVTF	9.34
EASNCFAIRHFENKFAVETLICLGCYRVPACVAC	4.36
EASNCFAIRHFENKFAVETLICLYPPWEPGEYLP	7.04
EASNCFAIRHFENKFAVETLICATLYIHDDCLDC	inactive
EASNCFAIRHFENKFAVETLICEVRRFRSGGHWA	5.88
EASNCFAIRHFENKFAVETLICVRWFGLGPFIGW	inactive
EASNCFAIRHFENKFAVETLICEFQFSIGIRVVG	inactive
EASNCFAIRHFENKFAVETLICLEVTGYEFRQVW	inactive
